The campaign covered roughly 360,000 compounds. About 25,000 (6.9%) were called active. The inconclusive results got no clear call from the source; some entries with a clear call stand among them for comparison. Calls follow the shape of the dose curve; as a rule, active = well fitted inhibition curve with a large enough effect; inconclusive = small, poorly fitted or top-dose-only effect; inactive = flat fitted curve, though single readings scatter. Where the call is inconclusive, the potency comes from a doubtful curve fit.
molecular target: Luciferin 4-monooxygenase (Photinus pyralis) (UniProt P08659); test: qHTS profiling assay for firefly luciferase inhibitor/activator using purifed enzyme and Km concentrations of substrates (counterscreen for miR-21 project); settings: purified FLuc, luminescence inhibition; series mostly up to 57.5 µM; activity change, negative = inhibition: at the top concentration; also: nearly all actives have a fitted effect of over 55% in size;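 as to activity change, negative = inhibition: plate controls were vehicle for no effect and reference inhibitor for full effect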
Chain of UniProt P08659 (P08659 whole entry, looked up): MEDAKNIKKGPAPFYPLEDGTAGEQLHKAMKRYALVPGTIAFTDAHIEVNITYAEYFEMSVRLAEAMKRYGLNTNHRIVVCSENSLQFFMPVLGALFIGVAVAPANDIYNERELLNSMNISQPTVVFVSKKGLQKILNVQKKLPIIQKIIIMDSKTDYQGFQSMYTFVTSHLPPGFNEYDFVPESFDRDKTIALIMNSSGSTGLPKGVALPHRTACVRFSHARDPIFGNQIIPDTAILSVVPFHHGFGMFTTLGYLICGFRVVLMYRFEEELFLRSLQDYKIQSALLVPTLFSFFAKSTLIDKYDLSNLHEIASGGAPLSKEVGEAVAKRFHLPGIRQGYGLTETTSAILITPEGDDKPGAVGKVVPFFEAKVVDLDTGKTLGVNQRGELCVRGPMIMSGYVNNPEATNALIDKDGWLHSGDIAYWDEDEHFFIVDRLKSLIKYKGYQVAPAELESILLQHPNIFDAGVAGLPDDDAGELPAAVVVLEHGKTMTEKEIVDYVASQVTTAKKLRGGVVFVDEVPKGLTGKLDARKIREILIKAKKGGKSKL
Method in brief: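 Purified P. pyralis luciferase, 10 nM final, with Km-level 10 uM D-luciferin and 10 uM ATP in 50 mM Tris acetate pH 7.5, 10 mM Mg acetate, 0.01% Tween-20, 0.05% BSA; 6-point qHTS titration about 60 µM downward; luminescence read.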
Potency is read from the fitted curve at half-maximal effect; tags tell the direction and shape of the fitted curve.

Row | Structure (SMILES) | Potency | activity change, negative = inhibition
1 | Cc1ccsc1/C=C1/C(=O)NN(c2ccccc2)C1=O | active: 9.53 µM | –
2 | COc1cccc(CCc2nnc(CCC(=O)NC(C)c3c(C)nn(C)c3C)o2)c1 (stereo not given) | – | inactive: 3.45%
3 | COc1ccc(CNC(=O)CNC(=O)c2ccc(Br)o2)cc1OC | – | inactive: -1.03%
4 | C#CCN(Cc1ccccc1)S(=O)(=O)C=C | – | inactive: 0.91%
5 | COC(=O)c1ccc(COc2cccc(OC)c2)o1 | inconclusive: 23.9 µM [inhibitor, single point] | –
6 | COc1ccc(CCNC(=O)CN(c2ccc(OC)c(OC)c2)S(=O)(=O)c2ccc(C)cc2)cc1 | – | inactive: 2.69%
7 | CC(=O)NCCNC(=O)c1ccc2c(=O)n(CCc3ccccc3)c(=O)[nH]c2c1 | inconclusive: 3.01 µM [inhibitor, full curve] | –
8 | CCc1ccc(NC(=O)C2CCN(C(=O)[C@@H]3Cc4ccccc4CN3)CC2)cc1 | inconclusive: 37.9 µM [inhibitor, partial curve, poor fit] | –
9 | COc1ccccc1N1CCN(/N=C/c2ccc([N+](=O)[O-])cc2)CC1 | active: 15.1 µM | –
10 | COc1ccc(Nc2n[nH]c(N)c2C(N)=O)cc1 | inconclusive: 26.9 µM [inhibitor, partial curve, poor fit] | –
11 | COC(=O)c1c(C)[nH]c(O)c1C=Nc1ccc(C(C)C)cc1 | active: 8.49 µM | –
12 | Cc1ccc([N+](=O)[O-])c(Oc2ncnc3c2oc2ccccc23)c1 | inconclusive: 30.1 µM [inhibitor, partial curve, poor fit] | –
13 | NS(=O)(=O)c1ccc(O)c(N2C(=O)c3cccc4c(C(=O)c5ccccc5)ccc(c34)C2=O)c1 | inconclusive: 16.9 µM [inhibitor, partial curve, poor fit] | –
14 | COc1ccc2c(Sc3ccccc3)c(C(=O)N3CCC(C)CC3)[nH]c2c1 | inconclusive: 8.49 µM [inhibitor, partial curve, poor fit] | –
15 | CC(C)C(O)C1CCN(Cc2nc(Cc3ccccc3Cl)no2)CC1 (stereo not given) | inconclusive: 37.9 µM [inhibitor, partial curve, poor fit] | –
16 | Cc1ccc(-c2nn3c(C)nnc3s2)cc1N | inconclusive: 21.3 µM [inhibitor, partial curve, poor fit] | –
17 | CCOC(=O)c1sc(N/N=C/c2cccc(C)c2)nc1C | active: 8.49 µM | –
18 | COc1cc(-c2cc(C(=O)Nc3ccccc3N3CCOCC3)c3ccccc3n2)cc(OC)c1OC | – | inactive: 3.7%
19 | CC(=O)Nc1ccc(OCc2ccc3c(c2)OCO3)cc1 | active: 16.9 µM | –
20 | CC1CC(C)CN(C(=O)CN2C(=O)NC(c3ccccc3)(c3ccccc3)C2=O)C1 (stereo not given) | – | inactive: 2.48%
21 | O=C(NCCc1c[nH]c2ccccc12)c1ccc([N+](=O)[O-])cc1 | inconclusive: 21.3 µM [inhibitor, partial curve] | –
22 | CCOc1cc(/C=C/c2cc(C(F)(F)F)[nH]c(=O)n2)ccc1O | inconclusive: 16.9 µM [inhibitor, partial curve, poor fit] | –
23 | Cc1ccc(/C=C/C(=O)Oc2ccc(C#N)cc2)o1 | inconclusive: 7.57 µM [inhibitor, partial curve, poor fit] | –
24 | O=C(Nc1ccccc1)c1ccccc1NS(=O)(=O)c1ccc(Cl)s1 | inconclusive: 33.8 µM [inhibitor, single point] | –
25 | Fc1ccc(-c2ccc(CNCc3ccccn3)o2)cc1Cl | inconclusive: 37.9 µM [inhibitor, single point] | –

Row | Structure (SMILES) | Potency | activity change, negative = inhibition
26 | CCCOC(=O)c1ccc(NC(=O)c2ccc(Br)o2)cc1 | active: 16.9 µM | –
27 | O=C(CCNC(=O)c1ccc(Cl)cc1)Nc1ccccc1N1CCCCC1 | inconclusive: 0.757 µM [inhibitor, partial curve, poor fit] | –
28 | COc1ccc(CCN(C)C(=O)c2cc(=O)c3ccccc3o2)cc1OC | – | inactive: -7.02%
29 | COc1cccc(C(=O)Nc2ccc(NC(=O)C3C4C=CC(C4)C3C(=O)O)cc2)c1 (stereo not given) | inconclusive: 37.9 µM [inhibitor, single point] | –
30 | CCOC(=O)c1sc(-c2ccccc2)cc1N | active: 13.5 µM | –
31 | CC1(C)Cc2nc3sc4c(=O)n(CC(N)=O)cnc4c3cc2CO1 | inconclusive: 10.7 µM [inhibitor, partial curve] | –
32 | COc1cccc(/C=N/NC(=O)c2ccoc2C)c1 | active: 10.7 µM | –
33 | CCOc1ccc(NS(=O)(=O)c2ccc3[nH]cc(C(=O)N(C)C4CCCCC4)c(=O)c3c2)cc1 | inconclusive: 12 µM [inhibitor, partial curve] | –
34 | CCOC(=O)COc1cc(O)c2c(=O)cc(-c3ccccc3)oc2c1 | – | inactive: -14.3%
35 | O=C(CNc1ccccc1)Nc1cccc2ccccc12 | – | inactive: 2.6%
36 | CCc1ccc(-c2cn3nc(C)c(C)nc3n2)cc1 | active: 0.379 µM | –
37 | CCOC(=O)c1snc(-c2ccc(F)cc2)c1N | inconclusive: 21.3 µM [inhibitor, partial curve] | –
38 | CCc1ccc(-n2c(=O)c3ccc(C(=O)NCCc4ccccc4)cc3n(Cc3ccccc3C#N)c2=O)cc1 | – | inactive: 2.6%
39 | COc1ccc(/C=N\NC(=O)/C(=C\Nc2nccc(C)n2)NC(=O)c2ccccc2)cc1 | active: 15.1 µM | –
40 | Cc1oc(-c2ccccc2Cl)nc1CSCC(=O)O | inconclusive: 26.9 µM [inhibitor, partial curve, poor fit] | –
41 | Cc1ccc2cc(/C=N/Nc3nc4ccccc4[nH]3)c(Cl)nc2c1 | active: 0.0849 µM | –
42 | CCN(CC)CCN1C(=O)C(O)=C(C(C)=O)C1c1ccccc1[N+](=O)[O-] (stereo not given) | inconclusive: 15.1 µM [inhibitor, partial curve] | –
43 | COC(=O)c1c(-c2cccs2)csc1NC(=O)c1ccc(C(C)(C)C)cc1 | inconclusive: 9.53 µM [inhibitor, partial curve] | –
44 | O=C(CCl)Nc1ccc(N=Nc2ccccc2)cc1 | active: 6.01 µM | –
45 | COc1cc(-c2cc(=O)c3ccccc3o2)ccc1O | inconclusive: 19 µM [inhibitor, partial curve] | –
46 | CCC1=NN2C(=N)/C(=C\c3cccn3-c3ccc(Br)cc3)C(=O)N=C2S1 | inconclusive: 10.7 µM [inhibitor, partial curve] | –
47 | CC1=NN2C(=N)/C(=C\c3cc(C)n(-c4ccc(C)cc4)c3C)C(=O)N=C2S1 | inconclusive: 30.1 µM [inhibitor, partial curve, poor fit] | –
48 | COc1ccccc1NC(=O)COC(=O)CC(C)(C)CC1=NS(=O)(=O)c2ccccc2N1 | inactive | –
49 | C/C(=N\Nc1ccccc1[N+](=O)[O-])c1ccccc1O | active: 5.36 µM | –
50 | COc1cccc(NC(=O)Nc2cnccn2)c1 | inconclusive: 15.1 µM [inhibitor, partial curve, poor fit] | –

Row | Structure (SMILES) | Potency | activity change, negative = inhibition
51 | COc1cccc(-c2cc(C(=O)N3CCN(c4ncccn4)CC3)c3ccccc3n2)c1 | inconclusive: 0.601 µM [inhibitor, partial curve] | –
52 | Cc1cc(C)n2nc(SCc3nnc(-c4ccc(F)cc4)o3)nc2n1 | – | inactive: -0.0866%
53 | CCC1CSC(Nc2ccc(C(=O)/C=C/c3cccc(C)c3)cc2)=N1 (stereo not given) | inconclusive: 23.9 µM [inhibitor, single point] | –
54 | COc1cccc(C2=NN(S(C)(=O)=O)C(c3cccs3)C2)c1 (stereo not given) | inconclusive: 21.3 µM [inhibitor, single point] | –
55 | O=C(O)c1ccc(N=Nc2c(O)[nH]c3ccccc23)cc1 | active: 0.426 µM | –
56 | O=C(Nc1ccccc1)c1ccc(NC(=O)C2CC2)cc1 | active: 7.57 µM | –
57 | Cc1ccc(-c2nc(S(=O)(=O)c3ccc(C)cc3)c(N3CCCCC3)o2)cc1 | – | inactive: 0.531%
58 | O=C(Nc1ccc(S(=O)(=O)NC2=NCCCCC2)cc1)c1ccc(Cl)cc1Cl | inconclusive: 16.9 µM [inhibitor, partial curve, poor fit] | –
59 | CCOc1cc(/C=C2\CCn3c2nc2cc(Cl)ccc2c3=O)ccc1O | – | inactive: 1.55%
60 | N#Cc1ccccc1S(=O)(=O)N1CCN(c2nc(-c3cccnc3)nc3ccccc23)CC1 | – | inactive: -0.607%
61 | COc1ccc(/C=N/NC(=O)c2ccccc2)cc1OS(=O)(=O)c1ccccc1 | inconclusive: 26.9 µM [inhibitor, partial curve, poor fit] | –
62 | COc1ccc(N2CCN(CC(O)c3c[nH]c4ccc(OC)cc34)CC2C)cc1 (stereo not given) | – | inactive: -0.448%
63 | CCCCNC(=O)c1cc(-c2ccc(Cl)c(Cl)c2)on1 | – | inactive: 2.84%
64 | COC(=O)C1=C(NC(=O)c2ccc(C)c(C)c2)CCS1 | inconclusive: 10.7 µM [inhibitor, partial curve, poor fit] | –
65 | Cc1cc2nc(-c3cccc(NC(=O)c4ccc(Br)o4)c3)oc2cc1C | active: 16.9 µM | –
66 | S=C(c1ccc(-c2cc(Cl)ccc2Cl)o1)N1CCCCC1 | active: 16.9 µM | –
67 | Cc1ccc(Cl)cc1-n1ncc2c(NCCC3=CCCCC3)ncnc21 | inconclusive: 21.3 µM [inhibitor, partial curve, poor fit] | –
68 | COCC(=O)n1nc(-c2ccccc2)nc1NCc1ccccc1 | inconclusive: 19 µM [inhibitor, single point] | –
69 | CCOc1ccc(OCC)c(-n2cnnn2)c1 | – | inactive: -7.19%
70 | NC(=S)Cc1ccc(Cl)cc1Cl | – | inactive: 4.99%
71 | CCOC(=O)CSc1nnc(-c2cccc(Br)c2)o1 | inconclusive: 19 µM [inhibitor, partial curve] | –
72 | O=C(CCSc1ccc(Cl)cc1)N1CCOCC1 | inconclusive: 30.1 µM [inhibitor, partial curve, poor fit] | –
73 | O=c1oc(-c2ccccc2)nc2sc3c(c12)CCCC3 | active: 1.2 µM | –
74 | COc1cccc(OCc2cc(=O)n3cc(C)sc3n2)c1 | inconclusive: 30.1 µM [inhibitor, single point] | –
75 | CN(C(=O)CSc1nnc(-c2ccc(OC(F)F)cc2)n1N)C1CCS(=O)(=O)C1 (stereo not given) | – | inactive: 6.91%
